Measured values taken from patent US20250186604A1, “ANTI-PSMA ANTIBODY CONJUGATES” (ADC THERAPEUTICS SA, priority 2023, published 2025).

Target: Human PSMA (Homo sapiens, UniProt Q04609)
Test: ELISA binding of naked anti-PSMA antibodies to coated human PSMA
Conditions: human PSMA coated at 3 μg/ml
Protocol: Human PSMA was coated on a 96 well plate at 3 μg/ml for at least two hours at room temperature. The plate was washed with wash buffer (0.05% Tween-20 in PBS), then blocked with blocking buffer (3% BSA in PBS) washed again using wash buffer. After which antibodies were titrated from 66.6 nM to 0.013 nM and added to the plate and incubated at room temperature for one hour, after which the plate was washed and anti-human-IgG-HRP added, the plate was incubated for a further 1 hour at room temperature, before being washed and TMB detection reagent added, the reaction was stopped by the addition of 1M HCl to the wells, after which the plate was read at 450 nm using the SpectraMax plate reader.

Chain of Human PSMA (Q04609 whole entry): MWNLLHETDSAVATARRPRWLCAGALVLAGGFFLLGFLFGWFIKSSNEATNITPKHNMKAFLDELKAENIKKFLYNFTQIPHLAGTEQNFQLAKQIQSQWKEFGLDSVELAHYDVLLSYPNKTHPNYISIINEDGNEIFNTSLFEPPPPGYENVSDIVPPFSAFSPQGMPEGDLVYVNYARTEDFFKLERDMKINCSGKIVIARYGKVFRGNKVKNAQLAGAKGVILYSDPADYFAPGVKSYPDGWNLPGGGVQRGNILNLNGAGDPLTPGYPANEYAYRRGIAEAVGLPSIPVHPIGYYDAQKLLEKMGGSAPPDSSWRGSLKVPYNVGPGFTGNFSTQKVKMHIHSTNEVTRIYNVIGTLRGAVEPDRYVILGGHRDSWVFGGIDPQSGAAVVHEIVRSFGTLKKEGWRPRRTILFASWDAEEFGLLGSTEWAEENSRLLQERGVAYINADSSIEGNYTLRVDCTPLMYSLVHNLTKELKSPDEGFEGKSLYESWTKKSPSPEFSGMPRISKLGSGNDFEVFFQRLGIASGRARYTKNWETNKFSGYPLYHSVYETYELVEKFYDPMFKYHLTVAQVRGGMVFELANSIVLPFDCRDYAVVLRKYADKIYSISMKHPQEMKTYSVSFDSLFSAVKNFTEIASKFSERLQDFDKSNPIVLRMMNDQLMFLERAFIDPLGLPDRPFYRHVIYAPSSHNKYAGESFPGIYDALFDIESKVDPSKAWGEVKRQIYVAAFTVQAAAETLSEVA

- EC50: lowest (best) value
B1: Mdx 2A10: anti-PSMA antibody, U.S. Pat. No. 7,875,278; heavy and light chains SEQ ID NOs: 9 and 10 (antibody)
heavy: EVQLVQSGAEVKKPGESLKISCKGSGYSFTSNWIGWVRQMPGKGLEWMGIIYPGDSDTRYSPSFQGQVTISADKSISTAYLQWSSLKASDTAMYYCARQTGFLWSSDLWGRGTLVTVSS[human IgG1 constant region not given here]
light: AIQLTQSPSSLSASVGDRVTITCRASQDISSALAWYQQKPGKAPKLLIYDASSLESGVPSRFSGYGSGTDFTLTINSLQPEDFATYYCQQFNSYPLTFGGGTKVEIKRTVAAPSVFIFPPSDEQLKSGTASVVCLLNNFYPREAKVQWKVDNALQSGNSQESVTEQDSKDSTYSLSSTLTLSKADYEKHKVYACEVTHQGLSSPVTKSFNRGEC
